Results as given in the supplement of paper PMC3334620.
Over roughly 33,000 sequences, “E-score (-0.5 to 0.5)” has its median near -0.017; the highest 2% begin near 0.3. This is one part of the list.

target: T1, Sut1 (UniProt P53032); test: PBM E-score (8-mer binding enrichment) (E-score (-0.5 to 0.5)); higher = stronger / more preferred TF binding; most listed sequences are background and not binding sites; details: protein concentration: 200 nM; construct: GST-full length
T1 sequence: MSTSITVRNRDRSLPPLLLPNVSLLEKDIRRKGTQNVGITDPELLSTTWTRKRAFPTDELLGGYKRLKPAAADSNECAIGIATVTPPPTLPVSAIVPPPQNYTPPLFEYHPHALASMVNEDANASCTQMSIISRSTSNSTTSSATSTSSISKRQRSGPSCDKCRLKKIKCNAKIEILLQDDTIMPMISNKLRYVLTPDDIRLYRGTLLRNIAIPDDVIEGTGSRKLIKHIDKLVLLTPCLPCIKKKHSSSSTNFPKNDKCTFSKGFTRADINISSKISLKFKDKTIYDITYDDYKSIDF
Method: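 Universal 'all 10-mer' protein binding microarrays (Agilent AMADID 015681) probed with GST-tagged S. cerevisiae TFs (full-length or DBD) made by in vitro transcription/translation (PURExpress), about 100-200 nM. Bound TF was detected with fluorescent anti-GST. Each ungapped 8-mer (which stands for itself and its reverse complement) is scored by the PBM enrichment score (E-score), a modified Wilcoxon-Mann-Whitney statistic from -0.5 to +0.5, computed with the Universal PBM Analysis Suite. Scale: above 0.35 generally sequence-specific binding.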

Sequence	PBM E-score
GGGAATTA	0.143
GACGCCTC	-0.125
CATTATAG	0.0697
GCAGTTAC	0.0174
ATCTCTCG	-0.105
GTTACAGA	-0.0314
ATACGAAT	0.0809
CCCACGCC	-0.284
TCGATTCA	0.096
CCTCATCA	-0.0454
ATGACTTC	-0.029
GACGGCAA	-0.0649
ACTTTCCT	-0.0678
CGCAAGCC	-0.0959
CATTTGGC	0.0871
ACGCCTGA	0.0136
GTGACTTA	0.103
AAGGTAAG	0.00196
TATGCGCA	-0.318
CAATCGCG	-0.0635
ACGCGACC	-0.227
GGCAGGGA	-0.294
TCATGGCA	-0.101
CGTCGAGC	-0.142
TAACCCAA	0.141

Sequence	PBM E-score
AGTAAGGA	-0.137
CCCAATTC	0.162
AGTAGTAC	0.162
CAATAAGC	-0.0887
GGCATACC	-0.204
ATATGAGC	0.00122
CAAAGCTG	0.0334
AACCGAGT	-0.0962
AAGGTTAT	0.0922
AACTGTTA	0.217
CCTGCGTA	-0.19
GGCAAAGA	0.095
AATGGTTC	0.0835
GAGTGGCC	-0.037
ACACGTCG	-0.206
AGTGCGTG	-0.00058
GCATCGCC	0.0168
ATGAGACA	-0.0116
GACCGAAC	0.0271
ACGGGCGG	-0.239
ATTTCCTA	0.135
TCAGCAAA	0.0208
ATCCGTCA	0.0376
AAGTTTCT	0.17
ACGCCTAT	-0.188

Sequence	PBM E-score
TCGACTCA	0.036
CAAGCCGG	0.152
AAGCTTTC	0.146
GAGAGCGC	-0.14
CGCGACCG	-0.205
GCAGTCTA	-0.135
AGTTCGGG	0.0543
GCATCGTA	-0.0143
CGCAGTAA	0.11
GAAATTAC	0.292
GCAGCTAA	-0.197
ATCTGCAG	0.0906
CTAGCAGC	-0.103
CACTGTTC	-0.123
TAAGTTCA	0.0818
GCGAACGC	-0.266
CAGCTTGC	-0.163
ACCCCTTG	-0.321
ACTAGTTC	0.122
CCAGATTA	0.0432
ATGTTACA	0.0659
ATATACAG	0.148
GGTTAGTA	-0.0393
AAAAGTAC	0.167
ACACGGAA	0.18

Sequence	PBM E-score
ATAGATGA	0.0702
ATCCTTAC	0.0692
CAGAGCCA	-0.285
AGGCTTTA	0.0818
CGGGCAAA	0.0553
ACCCGTGG	-0.405
ATCGATAA	0.0315
AACCTACG	0.0309
CAATATGG	-0.0809
CTCGACAA	-0.0222
GTTTTGGA	0.0457
TATGGAGA	0.144
CCTGAATC	-0.0375
AGGTACCT	-0.164
GAATGATC	-0.0913
CGTTCGTA	0.15
ACGTACCG	-0.157
CGTAAGAG	-0.013
ACCATACA	-0.0658
GCTAAGAA	0.014
GTTGTTAA	0.197
GCTATAAA	0.194
CTTAGCAC	0.0684
GACGAAAA	0.247
CTTAGCCC	-0.129

Sequence	PBM E-score
AGGATCTG	-0.275
AGCCGGCT	0.0069
ACTGCTAC	-0.0513
AGTTAGTA	0.0892
AGCATCGG	0.0931
CGTTAGCA	0.0473
GGTTTCCA	-0.112
AATCACCA	0.0859
AACTAAAT	0.101
ACAGGCCC	-0.315
CCACTTTC	0.108
CAGGGACG	-0.165
CGAATGGC	-0.11
TCGGCCAA	-0.199
TCGTGCCA	-0.222
TAGCTCCA	-0.0882
CGAACCGA	0.0613
AGTGGCGG	0.0532
GGCCACGA	-0.0754
CCCACTGC	-0.36
CAGCCCAA	-0.153
TACCAAAA	-0.0637
CATTCTTC	0.131
GTAACGAC	0.0279
ATGGGCTG	-0.258

Sequence	PBM E-score
AGATACGA	0.252
CACTAGCA	-0.245
AGAAAAAC	0.251
TCGTCACA	-0.132
CTCTTAGA	0.112
ATTACGAG	0.104
CCGGTCCC	0.0189
AGCGTGGG	-0.232
AGATTATG	0.192
AATTAGCC	0.0258
CACATGCG	-0.177
CCATCCCC	-0.152
ACATCATA	0.249
CTTTACTA	0.21
CCGTGAAA	0.232
CGGGATCC	0.00502
ACGGTTTG	-0.00598
GCCCCTGA	-0.359
AACTTGCA	-0.19
CAATGGAA	0.066
ATAAATAA	0.321
GTGAGCCA	-0.139
ATAAGTAA	0.25
CCTCTTCA	-0.184
GTACCTCA	-0.0469

Sequence	PBM E-score
CTAGGCAC	-0.263
CTCGCGAA	-0.0779
AAAGGAAG	0.146
GCCTGATA	-0.217
AGCATCAT	0.0711
ACATACCG	-0.0376
AACTCGCT	0.0435
CAAATTTC	0.163
TACGATAA	0.23
AGCTCGCA	-0.0891
GACCACTC	0.00269
GAGAGCCC	-0.378
ACAGTCTG	-0.187
GAGCCAGA	-0.115
CGGATAGC	0.0587
TCGCCCGA	-0.135
GATTTGAA	0.142
CCGTCAAA	-0.0438
ACATCGAT	0.00932
ATTAGAGC	0.123
TACTCAGA	0.0597
ACTAAGGA	-0.00143
